The values that follow are results of earlier work, collected in patent USRE41288E1, “Metabolic intervention with GLP-1 or its biologically active analogues to improve the function of the ischemic and reperfused brain” (Amylin Pharmaceuticals, Inc., priority 1998, dated 2010).

Where no end group is shown, it is not given here.

The conditions of data set [1]: transient focal cerebral ischemia models.
The conditions of data set [2]: global ischemia models.

Turning to insulin, the “protective effect (infarct volume, extent of cerebral necrosis)” value in data set [1] was “strong protective effect”. Also, the “protective effect (infarct size, neurological deficit, metabolic recovery)” value in data set [2] is listed as “remarkable protective effect”.

Turning to “Glu Gly Thr Phe Thr Ser Asp Val Ser Ser Tyr Leu Glu Gly Gln Ala Ala Lys Glu Phe Ile Ala Trp Leu Val Lys Gly Arg (NH2) (EGTFTSDVSSYLEGQAAKEFIAWLVKGR-NH2; listed as Homo sapiens) [SEQ ID NO:6]”, in the data set with pancreas, the “stimulation of production or release of insulin from the pancreas” value is “do not stimulate the production or release of insulin from the pancreas”.

With “Glu Gly Thr Phe Thr Ser Asp Val Ser Ser Tyr Leu Glu Gly Gln Ala Ala Lys Glu Phe Ile Ala Trp Leu Val Lys Gly Arg Gly (EGTFTSDVSSYLEGQAAKEFIAWLVKGRG; listed as Homo sapiens) [SEQ ID NO:5]”, the “stimulation of production or release of insulin from the pancreas” value in the data set on pancreas is recorded as “do not stimulate the production or release of insulin from the pancreas”.

tissue plasminogen activator [tPA]: the “improvement in clinical outcome” value (some, but not all, of the controlled trials, acute ischemic stroke) is on record as 30-55%. Further, the “risk of intracranial hemorrhage” value (tPA-treated group vs. 0.64% placebo, half of which were fatal) is on record as 6.4%.
